Data from PMC10979101.
Like-named read-outs stand apart in the source and are kept apart here.

How the values were obtained:
Assay in all cases: flow
[1] = target: Gab2 peptide 503-524 (Homo sapiens) (UniProt Q9UQC2)
[2] = target: Gab2 peptide 503-524 (Homo sapiens) (UniProt Q9UQC2); remark: listed apart in the source
[3] = target: Gab2 peptide 503-524 (Homo sapiens) (UniProt Q9UQC2); remark: listed apart in the source

Kd [1]: 7 µM
Kd [2]: 2.3 µM
Kd [3]: 6.5 µM
Substance: Grb2 SH2-SH3 SH2-C-SH3 (sequence not shown)
